Screen size: about 46,000 compounds; about 60 (0.1%) were called active. Inconclusive results (about 3%) are left out. The call rests on the fitted dose curve; in most records, active means well fitted inhibition curve with a large enough effect; inconclusive means small, poorly fitted or top-dose-only effect; inactive means no such curve, though single readings can be large or run the other way. Some of the results follow.
Assay: Primary qHTS assay for Inhibitors of ovarian cancer metastasis using an organotypic tumor microenvironment (TME) model. Further: nearly all actives have a fitted effect of over 65% in size.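 On activity change, negative = inhibition: plate controls were DMSO wells for no effect and tomatine positive control wells for full effect.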
Settings: SKOV3ip1-GFP adhesion/invasion on 3D omental model, fluorescence; series mostly up to 45.8 µM; activity change, negative = inhibition: at the top concentration
Outline: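 qHTS, 4-pt dose (0.36-46 umol/L); SKOV3ip1-GFP, 1,200 cells/well, no FBS; primary omental fibroblast/mesothelial co-culture 48 h pre-grown; 2 h RT + 16 h 37 C; PBS wash, 4% PFA; GFP count 488/509 nm.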

Activity change, negative = inhibition, inactive:
Cc1cc(Nc2cc(Cl)ccc2C)n2nc(-c3ccccc3)nc2n1 -18.9%, CC(=O)c1cccc(NC(=O)Cn2ccn3nc(-c4ccccc4)cc3c2=O)c1 0.984%, Cc1cccc(-n2c3nc(=O)[nH]c(=O)c-3cc3ccc(Cl)cc32)c1C -5.67%, CCOc1ccc(-c2cc(C(=O)NCCc3ccc(C)cc3)c3ccccc3n2)cc1 -7.41%, COc1ccc(OC)c(-c2noc(N3CCN(c4cccc(C(F)(F)F)c4)CC3)n2)c1 25.8%, CC(C)CCNC(=O)c1cc(-c2cccnc2)nc2ccc(S(=O)(=O)N3CCC(C)CC3)cc12 8.06%, COc1ccc(NC(=O)c2nnn(-c3ccc(C(C)C)cc3)c2C)c(OC)c1 21.9%, CCOC(=O)CC(NC(=O)Cn1nnc(-c2ccc(Cl)cc2)n1)c1ccc(OC)cc1 (centres undefined) 6.33%, COc1ccc(-c2coc3cc(O)cc(O)c3c2=O)cc1 14.5%, Cn1c(CN2CCOCC2)nc2cc(NC(=O)c3ccccc3[N+](=O)[O-])ccc21 9.15%, CCOc1cccc2sc(N3CCN(C(=O)c4ccco4)CC3)nc12 -5.46%, CCn1c(C(=O)Nc2c(C)cccc2C)cc2sc(Cl)cc21 0.475%, COc1cccc(NC(=O)N(Cc2c[nH]c3ccccc23)C2CCCCCC2)c1 0.459%, Cc1ccc(NC(=O)c2oc3ccc(S(=O)(=O)N4CCCCCC4)cc3c2C)c(C)c1 -4.31%, COc1cccc(-c2noc(COc3ccc(C(C)(C)C)cc3)n2)c1 2.85%, Cc1ccccc1NS(=O)(=O)c1ccc2[nH]cc(C(=O)NC3CCCCC3)c(=O)c2c1 -4.34%, COc1ccc(OC)c(NC(=O)Cn2c(=O)n(-c3cccc(C)c3)c(=O)c3c2c2cc(C)ccc2n3C)c1 5.02%, Cc1ccc(NC(=O)c2c(NC(=O)c3ccc(F)cc3)sc3c2CCCC3)cc1C 13.8%, COc1ccc(NC(=O)c2cc3c(=O)n(Cc4cccs4)ccc3nc2C)cc1 6.21%, CCOc1ccc(-n2c(SCC(=O)Nc3cc(C)on3)nc3c([nH]c4ccccc43)c2=O)cc1 7.29%, CCc1ccccc1N(C)C(=O)Cn1cnc2sc(C)c(S(=O)(=O)N3CCC(C)CC3)c2c1=O 10%, CCOC(=O)c1cc(OC(=O)c2cc(OC)c(OC)c(OC)c2)n(-c2ccccc2)n1 -1.75%, CCOC(=O)c1c(C)oc2nc(C)nc(N3CCN(c4cc(Cl)ccc4C)CC3)c12 5.03%, COc1ccc(N(CC(=O)N2CCN(c3ccccc3)CC2)S(=O)(=O)c2c(C)nn(C)c2C)cc1 -2.24%, CCOC(=O)c1ccc(NC(=O)CSc2nc(-c3ccc(OC)cc3)cc(C(F)(F)F)c2C#N)cc1 -9.11%, CCn1cc2nc(SCC(=O)Nc3ccc(OC)c(Cl)c3)n(Cc3ccc(OC)cc3)c(=O)c2n1 -5.3%, CC(C)c1noc(N2CCC(COc3ccc(-c4ccc(S(C)(=O)=O)cc4)nc3)CC2)n1 -12%, Cc1ccc(Nc2ccc3cc(S(=O)(=O)N4CCCCC4)ccc3n2)cc1F -9.19%, N#Cc1nc(COc2ccccc2Cl)oc1NCCc1ccccc1 -4.52%, CCc1nnc(SC(CC)C(=O)Nc2ccc(OC)c(Cl)c2)c2cc3occc3n12 (centres undefined) 0.634%, CC(=O)c1ccc(NC(=O)c2cn(-c3ccccc3)nc2-c2ccc(Br)cc2)cc1 5.85%, Cc1cc(C)c(NS(=O)(=O)c2ccc3c(c2)CC(C)N3C(=O)C2CCC2)c(C)c1 (centres undefined) 6.12%, COc1ccccc1NC(=O)c1c(C)cc(C)nc1SCC(=O)Nc1ccc(C)c(C)c1 5.93%, Cc1ccc(CCNC(=O)CN(c2cc(C)cc(C)c2)S(=O)(=O)c2c(C)noc2C)cc1 6.85%, COc1ccccc1Nc1nc(-c2ccc(F)cc2)c2c(n1)-c1ccccc1OC2 -27.5%, Cc1ccc(-c2ccc(=O)n(CC(=O)NCCc3ccc(Cl)cc3)n2)cc1 7.81%, Cc1ccc(Cl)cc1N1CCN(C(=O)C2CCN(S(=O)(=O)Cc3ccccc3)CC2)CC1 -2.36%, CCCCNS(=O)(=O)c1ccc(N2CCCCS2(=O)=O)cc1 -3.06%, CCCOc1ccc(CNC(=O)c2ccc3c(c2)N(Cc2ccccc2)CCS3)cc1 -2.65%, COc1ccc(NC(=O)c2c(NCc3cccs3)sc3c2CCCC3)c(OC)c1 2.2%, CC(=O)n1nc(-c2cccnc2)nc1NCc1ccc(F)cc1 -1.39%, O=C(OCc1cc(=O)n2nc(-c3cccs3)sc2n1)c1ccccc1 3.5%, O=C1c2oc3ccccc3c(=O)c2C(c2ccc(O)cc2)N1Cc1ccc2c(c1)OCO2 (centres undefined) 9.18%, CCOC(=O)C1CCCN(c2c(C(=O)c3ccc(OCC)cc3)cnc3ccccc23)C1 (centres undefined) -1.23%, Cc1cc(OCC(=O)Nc2c(C(=O)c3ccccc3)oc3ccccc23)cc(C)c1Cl 6.46%, O=C(CCC1N=C2c3ccccc3N=C(SCc3cccc(F)c3)N2C1=O)NCCc1ccccc1 (centres undefined) 0.58%, CCCCCCCCCCCCCC(=O)N[C@H](CO)[C@H](O)c1ccc([N+](=O)[O-])cc1 -1.95%, Cc1cccc(C)c1NC(=O)Cn1nnc(C(=O)Nc2c(C)cccc2C)c1N 1.19%, COC(=O)c1ccccc1NC(=O)c1ccc(-c2nc(COc3ccccc3)c(C)o2)cc1 6.1%, COc1ccc(Nc2cc(-c3cnc(N)nc3)nc(N3CCOCC3)n2)cn1 -15.1%, CN1C(=O)Cc2cc(S(=O)(=O)CCC(=O)Nc3ccc(Cl)c(C(F)(F)F)c3)ccc21 9.21%, CCOC(=O)c1c(C)[nH]c(CCC(=O)NCc2cccc(C)c2)c1C -4.11%, COc1ccc(NC(=O)c2oc3ccccc3c2NC(=O)Cc2coc3cc(C)ccc23)cc1 -1.04%, COc1ccc(C)cc1NC(=O)CCNC(=O)Cn1ccc2ccccc2c1=O 4.79%, O=C(CCC1N=C2c3ccccc3N=C(SCc3ccccc3F)N2C1=O)NCc1ccccc1 (centres undefined) 3.79%, CCCNC(=O)COCc1cc(-c2ccc(F)cc2)on1 -6.3%, Cn1c(-c2ccccc2)cnc1NCc1ccccc1O -4.24%, O=C(NCc1ccccc1Br)c1ccc2c(c1)nc1n2CCOC1 6.08%, COc1ccc2oc(-c3ccc(C)c(NC(=O)c4ccc5c(c4)OCCO5)c3)nc2c1 -17.3%, Cc1ccc(NC(=O)Cn2cc(S(=O)(=O)Cc3cccc(Cl)c3)c3ccccc32)cc1C -3.56%, COc1ccc(-n2ncc(C(=O)Nc3ccc4c(c3)OCO4)c2C2CCN(C(=O)OC(C)(C)C)CC2)cc1 38.7%

outcome, inactive:
O=C(CSc1nc2c([nH]c3ccccc32)c(=O)n1-c1ccccc1)N1CCCCC1, O=C(Cn1nc(-c2ccccc2)c2c(c1=O)CCCC2)Nc1ccc(F)c(Cl)c1, CN(C(=O)c1cc2c(Cl)nc3ccccc3c2s1)c1cccc(C(F)(F)F)c1, COc1ccc(-n2c(C)nnc2SCc2nc(-c3ccc(OC)c(OC)c3)no2)cc1, COc1cccc(CNC(=O)CCCn2nc(C)c3sc4ccccc4c3c2=O)c1, COc1ccc(-c2cc3nc(C)c(CCC(=O)NCc4ccccc4Cl)c(C)n3n2)c(OC)c1, O=C(Cc1ccccc1)N(Cc1cccnc1)c1nc2c(Cl)cccc2s1, COc1ccc(C)cc1NC(=O)Cn1c(=O)oc2cc(S(=O)(=O)N3CCCCC3)ccc21, CCc1cccc(C)c1NC(=O)C1CCN(S(=O)(=O)c2c(C)noc2/C=C/c2c(C)cc(C)cc2C)CC1, CCOc1ccc(NC(=O)NCCN2CCN(c3cccc(C)c3C)CC2)cc1, O=C(CCC1CCCC1)N1CCc2c([nH]c3ccccc23)C1c1ccc(F)cc1 (centres undefined), CCOc1ccc(C2CC(=O)NC(NC(=O)c3cccc(Cl)c3)=N2)cc1 (centres undefined), COc1cccc(-n2ccn(CC(=O)NCc3ccc(C)cc3)c(=O)c2=O)c1, COc1ccccc1CNC(=O)CCCn1c(=O)c2ccccc2n(Cc2ccc(F)cc2)c1=O, COc1ccccc1-c1noc(-c2ccc(N3CCN(C)CC3)c([N+](=O)[O-])c2)n1, CCOC(=O)c1c(C)c(-c2ccccc2)n(CC(=O)Nc2ccc(OCC)cc2)c1C, CCc1ccc(N(CC)C(=O)CCn2cnc3onc(-c4ccc(F)cc4)c3c2=O)cc1, COc1ccc(-c2cn3c(n2)sc2cc(C(=O)Nc4cccc(SC)c4)ccc23)cc1, Cc1ccc(CSC2=Nc3ccccc3C3=NC(CC(=O)NCc4cccs4)C(=O)N23)c(C)c1 (centres undefined), O=C(Nc1ccc2nc(SCCOc3ccccc3)sc2c1)c1ccccc1F, COc1cccc2c1cc1c(=O)n(CC(=O)N3CCN(c4cccc(Cl)c4)CC3)nc(C)n12, COC(=O)C(CCSC)NC(=O)Cn1ncc2c([nH]c3ccccc32)c1=O (centres undefined), Cc1ccc(CNC(=O)CN2C(=O)CSc3ccc(S(=O)(=O)N(C)C)cc32)cc1, CCn1cc(C(=O)OCC(=O)Nc2cc(OC)cc(OC)c2)c(=O)c2ccc(C)nc21, O=C(c1ccc(Cl)cc1)N1CCC(c2nc3ccccc3o2)CC1, CCN1CCN(CCCNC(=O)c2cnn(-c3ccccc3Cl)c2C2CCN(C(=O)OC(C)(C)C)CC2)CC1, Cc1nn(C)c2c1c(-c1ccccc1)cc(=O)n2Cc1ccccc1C#N, CC(C)CN(CCCNC(=O)c1cc(-c2cccs2)nc2ccccc12)CC(C)C, CCCCc1nn2c(=O)cc(COC(=O)c3cccc(Cl)c3)nc2s1, Cc1cc(F)ccc1NC(=O)C1CCN(C(=O)c2cnn(-c3ccccc3)c2-n2cccc2)CC1, COCCCn1c(=N)c(C(=O)NCc2cccnc2)cc2c(=O)n3cccc(C)c3nc21, Cc1ccc(CNC(=O)CN2C(=O)CSc3c2c(C)nn3-c2ccccc2)cc1, COc1ccc(C2=C(C)C(=NCCCN3CCN(c4cc(Cl)ccc4C)CC3)NS2(=O)=O)cc1
